The list shows a part of the results.

For one test, the system named is HSkMC. The test is described as follows: cytotoxicity call (relative viability < 0.9). To be noted: 10 µM.
The next test deals with HepG2. The test is described as follows: cytotoxicity call (relative viability < 0.9). The note with it: 10 µM.
A further test deals with S. aureus RN4220. Kind of test: growth inhibition call (relative growth <= 0.2). To be noted: 50 µM.

Take `C[C@@H]1CCCCO[C@H](CN(C)C(=O)Nc2ccc(F)cc2)[C@H](C)CN([C@H](C)CO)C(=O)c2cc(NC(=O)Nc3ccc(F)cc3)ccc2O1`: the cytotoxicity call in the test on HSkMC and in the test on HepG2 was “inactive” throughout. Moreover, in the test with S. aureus RN4220, the growth inhibition call was “inactive”.
With `C[C@H]1CN([C@@H](C)CO)C(=O)Cc2cc(NC(=O)Nc3ccc(C(F)(F)F)cc3)ccc2O[C@@H]1CN(C)Cc1ccc(-c2ccccc2)cc1`, in the test with HSkMC, the cytotoxicity call was “active”. In addition, the cytotoxicity call with HepG2 is “inactive”. Also, the growth inhibition call in the test on S. aureus RN4220 was “inactive”.
For `COc1ccc(CN(C)C[C@@H]2OCCCC[C@H](C)Oc3ccc(NS(=O)(=O)c4cccs4)cc3C(=O)N([C@@H](C)CO)C[C@@H]2C)cc1`, the cytotoxicity call with HSkMC and with HepG2 was “inactive” throughout. Also, in the test with S. aureus RN4220, the growth inhibition call was “inactive”.
In the case of `C[C@H](CO)N1C[C@H](C)[C@H](CN(C)C(=O)Nc2ccc(C(F)(F)F)cc2)OCCCC[C@H](C)Oc2ccc(NS(=O)(=O)c3cccs3)cc2C1=O`, in the test with HSkMC, the cytotoxicity call is “inactive”. For the same compound, the cytotoxicity call in the test with HepG2 was “active”. For the same compound, in the test on S. aureus RN4220, the growth inhibition call was “inactive”.
For the compound `CC(C)N1C[C@@H](CN(C)CCc2ccc(Cl)c(Cl)c2)Oc2c(NC(=O)c3ccncc3)cccc2C1=O`, the cytotoxicity call in the test on HSkMC and with HepG2 was “inactive” in each case. The growth inhibition call with S. aureus RN4220 is “inactive”.
In the case of `C[C@@H]1CCCCO[C@H](CN(C)Cc2ccc3c(c2)OCO3)[C@H](C)CN([C@@H](C)CO)C(=O)c2cc(NC(=O)c3ccccc3)ccc2O1`, the cytotoxicity call in the test on HSkMC and in the test on HepG2 was “inactive” each time. For the same compound, the growth inhibition call with S. aureus RN4220 is “inactive”.
Take `CC(C)C#Cc1ccc2c(c1)O[C@H](CN(C)C(=O)Cc1ccccn1)[C@H](C)CN([C@@H](C)CO)S2(=O)=O`: the cytotoxicity call with HSkMC and with HepG2 was “inactive” each time. For the same compound, in the test with S. aureus RN4220, the growth inhibition call was “inactive”.
For `Cc1ccc(S(=O)(=O)Nc2ccc3c(c2)C(=O)N([C@@H](C)CO)C[C@@H](C)[C@H](CN(C)C(=O)Nc2ccc(C(F)(F)F)cc2)O3)cc1`, the cytotoxicity call in the test on HSkMC and in the test with HepG2 was “inactive” in each case. Besides, in the test on S. aureus RN4220, the growth inhibition call is “inactive”.
Take `CC(=O)c1c(O)cc(O)cc1CC(=O)O`: the cytotoxicity call with HSkMC and in the test with HepG2 was “inactive” each time. The growth inhibition call in the test with S. aureus RN4220 was “inactive”.
`C[C@H](CO)N1C[C@H](C)[C@H](CN(C)Cc2ccc(C(=O)Nc3ccccc3N)cc2)Oc2c(NC(=O)Nc3ccc4c(c3)OCO4)cccc2C1=O`: the cytotoxicity call in the test with HSkMC and with HepG2 was “inactive” in each case. Besides, the growth inhibition call in the test on S. aureus RN4220 was “inactive”.
Take `C[C@@H]1CN([C@H](C)CO)C(=O)c2cc(NC(=O)NC3CCCCC3)ccc2O[C@@H](C)CCCCO[C@@H]1CN(C)Cc1ccncc1`: the cytotoxicity call in the test with HSkMC and with HepG2 was “inactive” each time. In the test on S. aureus RN4220, the growth inhibition call was “inactive”.
`O=C(C[C@H]1CC[C@H]2[C@@H](COC[C@@H](O)CN2S(=O)(=O)c2ccccc2F)O1)NCc1ccccc1Cl`: the cytotoxicity call in the test on HSkMC and with HepG2 was “inactive” throughout. In addition, the growth inhibition call with S. aureus RN4220 is “inactive”.
Regarding `C[C@H](CO)N1C[C@H](C)[C@@H](CN(C)Cc2ccc3c(c2)OCO3)OCCCC[C@H](C)Oc2ccc(NS(=O)(=O)c3cccs3)cc2C1=O`, the cytotoxicity call in the test with HSkMC and in the test with HepG2 was “inactive” each time. The growth inhibition call in the test with S. aureus RN4220 is “inactive”.
As to `COc1ccc(S(=O)(=O)Nc2ccc3c(c2)CC(=O)N([C@H](C)CO)C[C@@H](C)[C@@H](CN(C)S(=O)(=O)c2ccc(C)cc2)O3)cc1`, the cytotoxicity call in the test on HSkMC and with HepG2 was “inactive” throughout. In addition, the growth inhibition call in the test with S. aureus RN4220 was “inactive”.
Consider `C[C@H]1CCn2cc(nn2)COC[C@@H](Cc2ccccc2)NC(=O)[C@@H](C)CCn2cc(nn2)COC[C@@H](Cc2ccccc2)NC1=O`, for which the cytotoxicity call in the test with HSkMC and with HepG2 was “inactive” each time. Moreover, the growth inhibition call with S. aureus RN4220 is “inactive”.
For `O[C@@H](CCl)CN1CC[N+]2(CC1)CC[N+]1(CCN(C[C@@H](O)CCl)CC1)CC2`, the cytotoxicity call in the test with HSkMC and in the test on HepG2 was “inactive” in each case. Further, in the test with S. aureus RN4220, the growth inhibition call is “inactive”.
For the compound `C[C@H]1CCCCO[C@@H](CN(C)C(=O)Nc2ccc(F)cc2)[C@@H](C)CN([C@@H](C)CO)C(=O)c2cc(NC(=O)Nc3ccc(C(F)(F)F)cc3)ccc2O1`, the cytotoxicity call with HSkMC and with HepG2 was “inactive” in each case. The growth inhibition call with S. aureus RN4220 was “inactive”.
Turning to `Cc1ccc(S(=O)(=O)N(C)C[C@@H]2OCCCC[C@H](C)Oc3ccc(NC(=O)C4CCCCC4)cc3C(=O)N([C@@H](C)CO)C[C@H]2C)cc1`, the cytotoxicity call in the test on HSkMC and in the test on HepG2 was “inactive” each time. Also, the growth inhibition call in the test with S. aureus RN4220 is “inactive”.
On to `O=C(C[C@H]1CC[C@H](NC(=O)c2cccnc2)[C@H](CO)O1)NCCN1CCCCC1`, for which the cytotoxicity call with HSkMC and in the test with HepG2 was “inactive” throughout. For the same compound, in the test with S. aureus RN4220, the growth inhibition call was “inactive”.
In the case of `CCS(=O)(=O)N1CC[C@]2(CC1)CN(Cc1ccc3c(c1)OCO3)[C@H](CO)c1[nH]c3cc(ccc3c12)OC`, the cytotoxicity call with HSkMC and with HepG2 was “inactive” in each case. Moreover, the growth inhibition call in the test on S. aureus RN4220 was “inactive”.
`NCCc1ccn[nH]1`: the cytotoxicity call with HSkMC and in the test on HepG2 was “inactive” each time. Further, in the test with S. aureus RN4220, the growth inhibition call is “inactive”.
Take `Cc1n[nH]c(SCC(=O)O)nc1=O`: the cytotoxicity call in the test with HSkMC and in the test on HepG2 was “inactive” throughout. For the same compound, the growth inhibition call in the test with S. aureus RN4220 was “inactive”.
As for `COCC(=O)Nc1ccccc1C(=O)O`, the cytotoxicity call with HSkMC and with HepG2 was “inactive” in each case. The growth inhibition call in the test with S. aureus RN4220 is “inactive”.
Consider `C[C@H]1CN([C@@H](C)CO)C(=O)c2cccc(NC(=O)Nc3ccc(F)cc3)c2O[C@@H]1CN(C)Cc1ccc(-c2ccccc2)cc1`, for which the cytotoxicity call in the test with HSkMC and with HepG2 was “inactive” each time. In addition, the growth inhibition call in the test with S. aureus RN4220 is “inactive”.
For `C[C@H](CO)N1C[C@H](C)[C@H](CN(C)C(=O)Nc2cccc3ccccc23)Oc2ccc(NS(=O)(=O)c3ccc(F)cc3)cc2C1=O`, the cytotoxicity call in the test with HSkMC and with HepG2 was “inactive” in each case. Further, in the test on S. aureus RN4220, the growth inhibition call is “inactive”.
As to `C[C@H](CO)N1C[C@H](C)[C@H](CN(C)C(=O)c2ccncc2)OCCCC[C@H](C)Oc2ccc(NS(C)(=O)=O)cc2C1=O`, the cytotoxicity call in the test on HSkMC and with HepG2 was “inactive” each time. For the same compound, the growth inhibition call in the test with S. aureus RN4220 was “inactive”.
Take `C[C@@H]1CN([C@@H](C)CO)C(=O)c2cc(NS(=O)(=O)c3cccs3)ccc2O[C@@H]1CN(C)Cc1ccc(Cl)c(Cl)c1`: the cytotoxicity call in the test on HSkMC (human skeletal muscle cells) and in the test with HepG2 was “inactive” in each case. The growth inhibition call with S. aureus RN4220 is “inactive”.
